Screen size: about 45,000 compounds; about 200 (0.44%) were called active. Another 7% or so got no clear call; they are omitted. The call rests on the fitted dose curve; in most records, active means well fitted activation curve with a large enough effect; inconclusive means small, poorly fitted or top-dose-only effect; inactive means no such curve, though single readings can be large or run the other way. This is one part of the list.
experiment: qHTS of TDP-43 Inhibitors: NCGC Sytravon Library Screen; conditions: yeast TDP-43 toxicity rescue, BacTiter-Glo growth, 24 h; series mostly up to 46.1 µM; growth rescue (activation): at the top concentration; further: 0% is about no effect; nearly all actives have a fitted effect of over 55% in size
In short: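 TDP-43-expressing yeast, pregrown in raffinose, seeded at OD600 0.02 in galactose medium with compound for 24 hr at 30 deg C. Growth read by BacTiter-Glo luminescence, so rescue of toxicity appears as activation.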

Row | Compound | growth rescue (activation)
1 | Cc1ccnn1-c1ccc(C(=O)NCc2ccccc2CN2CCOCC2)cc1 | inactive: -3.81%
2 | N#Cc1nc(Cc2cccc3ccccc23)oc1N1CCC(C(N)=O)CC1 | inactive: 13.5%
3 | NC(=O)CN1C(=O)/C(=c2\sc3nc(=O)c(Cc4ccccc4)nn3c2=O)c2ccccc21 | inactive: 8.7%
4 | CCOc1ccccc1OCCCC(=O)NNC(=O)c1ccc(F)cc1 | inactive: -2.76%
5 | O=C(NC(=S)NCc1ccc(Cl)cc1Cl)c1ccco1 | inactive: 15.9%
6 | COc1cc(C)c(CN2CCN(C(C)C(=O)NC(C)c3ccccc3)CC2)cc1OC (stereo unspecified) | inactive: 3%
7 | COc1cc(CCC(=O)Nc2nnc(C)s2)cc(OC)c1OC | inactive: 3.64%
8 | Cc1cc(CNC(=O)CCc2nnc(CCCc3ccccc3)o2)nn1C | inactive: 12.7%
9 | CCCN(CCC)CCNC(=O)c1cc2c(=O)n(CC)c3ccccc3c2s1 | inactive: -11.6%
10 | CS(=O)(=O)c1ccccc1C(=O)NCCC(c1ccccc1)c1ccccc1 | inactive: -12.5%
11 | Cc1cccc(NC(=S)N(Cc2ccc(Br)cc2)Cc2ccc(C(=O)O)cc2)c1 | inactive: -5.24%
12 | Cc1nc(-c2ccncc2)sc1C(=O)Nc1ccc(Br)cc1 | inactive: 13.2%
13 | N#CC(C#N)=Cc1ccc(-c2ccc(S(=O)(=O)N=C(N)N)cc2)o1 | inactive: 3.66%
14 | C/C(N)=C(/C#N)C(=O)COC(=O)c1ccccc1Cc1ccccc1 | inactive: 18.8%
15 | O=C(Nc1cccc(Cl)c1)Nc1nnc(-c2ccncc2)s1 | inactive: 15.7%
16 | Cc1ccc(N=Nc2c(N)n[nH]c2N)cc1 | inactive: -1.82%
17 | COc1ccc(NC(=O)CN2C(=O)NC3(CCCC3)C2=O)cc1 | inactive: 1.37%
18 | CN(C(=O)CSc1cccc[n+]1[O-])C1CCCCC1 | inactive: 36.5%
19 | O=C(NCc1c(F)cccc1F)c1cc(COc2c(F)cccc2F)on1 | inactive: -2.23%
20 | COc1ccc(S(=O)(=O)N2CCC(C(=O)N3CCOCC3)CC2)cc1Cl | inactive: 6.22%
21 | O=C1NC(=O)C2C1C(c1cccs1)NN2Cc1ccccc1 (stereo unspecified) | inactive: 1.52%
22 | CCOC(=O)C(=O)NN=C(c1ccccc1)c1ccccc1 | inactive: 9.89%

Row | Compound | growth rescue (activation)
23 | CSCC[C@H](NC(=O)c1cccc(S(=O)(=O)N2CCCCC2)c1)c1nc2ccccc2[nH]1 | inactive: 9.24%
24 | CCCC(CCC(=O)Nc1cc([N+](=O)[O-])ccc1O)C(=O)O (stereo unspecified) | inactive: -12.9%
25 | COCCn1c(N)c(NCc2ccccc2)c(=O)[nH]c1=O | inactive: 5.19%
26 | Cc1cc(CCC(=O)O)c(C)cc1CCC(=O)O | inactive: 16.6%
27 | O=C(c1cc(Sc2cccc(Cl)c2)nc2ccccc12)N1CCN(c2ccccn2)CC1 | inactive: -20.1%
28 | CC(C(=O)c1ccc(-c2ccccc2)cc1)[n+]1cccc(NC(=O)c2ccccc2)c1 (stereo unspecified) | inactive: 15%
29 | NC(=O)c1cccc(-c2ccnc3c2CC(C(=O)Nc2ccccc2)O3)c1 (stereo unspecified) | inactive: -8.13%
30 | CC1(C(=O)NS(=O)(=O)Cc2cccc(Cl)c2)CCN1C(=O)CC1CCCC1 (stereo unspecified) | inactive: -9.65%
31 | CCOc1cc(C2C(C(=O)c3ccco3)=C(O)C(=O)N2CC2CCCO2)ccc1O (stereo unspecified) | inactive: -8.77%
32 | CCOc1ccc(C2C(C(=O)c3ccco3)=C(O)C(=O)N2Cc2cccnc2)cc1OC (stereo unspecified) | inactive: 4.33%
33 | S=C(NC1CC1)NC1CCCc2ccccc21 (stereo unspecified) | inactive: -5.85%
34 | CCOC(=O)CNC(=S)N(CCCN1CCCC1)Cc1cccs1 | inactive: 7.55%
35 | COc1ccc(N2CCN(C(=O)CCCCn3c(=O)[nH]c4ccsc4c3=O)CC2)cc1 | inactive: 9.1%
36 | CSCCC(NC(=O)c1ccc(Cl)cc1)C(=O)OCC(=O)Nc1ccc(C#N)cc1 (stereo unspecified) | inactive: -38.3%
37 | Cc1ccc(NS(=O)(=O)c2ccc(C(=O)OCC(=O)NCC3CCCO3)cc2)cc1 (stereo unspecified) | inactive: 8.75%
38 | O=C1c2ccccc2NC(c2ccccc2)N1NS(=O)(=O)c1ccccc1 (stereo unspecified) | inactive: 13.9%
39 | Cc1ccc(Cl)cc1N1CCN(C(=O)c2ccc3nc[nH]c3c2)CC1 | inactive: 26.7%
40 | CC1(C)C(CSc2nc3ccccc3[nH]2)C1(Cl)Cl (stereo unspecified) | inactive: -10.6%
41 | C=CCn1c2ccccc2c2nnc(SCCCn3c(=O)[nH]c4ccccc43)nc21 | inactive: 22.6%
42 | O=C(/C=C/c1ccco1)NCCCN1CCN(CCCNC(=O)/C=C/c2ccco2)CC1 | inactive: -2.98%
43 | C=CCN(c1ccc(C(=O)Nc2cccc(C)c2)cc1)S(C)(=O)=O | inactive: -4.13%
44 | CC(C)(C)SC(C(=O)N1CCOCC1)c1ccc(Br)cc1 (stereo unspecified) | inactive: 18.4%

Row | Compound | growth rescue (activation)
45 | CCCNS(=O)(=O)c1ccc(OCC(=O)N2CCN(c3ccccc3)CC2)cc1 | inactive: -3.83%
46 | CCc1nnc(NC(=O)CSc2nnc(C(C)NC(=O)c3ccccc3)n2C)s1 (stereo unspecified) | inactive: -0.281%
47 | CCOCCOC(=O)c1[nH]c2c(c1C)C(=O)CC(c1cccs1)C2 (stereo unspecified) | inactive: 18.7%
48 | Cc1ccc(C(=O)NCC(=O)N2CCC(Cc3ccccc3)CC2)cc1 | inactive: -7.35%
49 | O=C(Nc1ccccc1Br)c1cc(=O)c2ccccc2o1 | inactive: 6.84%
50 | c1ccc2c(C3=NNC(=NC4CC4)SC3)c[nH]c2c1 | inactive: 18.1%
51 | CCC(=O)Nc1ccc(-c2cc3ccccc3oc2=O)cc1 | inactive: -6.25%
52 | CCOC(=O)C(/C=C(\C#N)C(=O)OCC)=C(/N)N1CCN(c2c(C)cccc2C)CC1 | inactive: -4.01%
53 | O=C(COC(=O)C1CCN(S(=O)(=O)c2ccc3c(c2)OCCO3)CC1)Nc1cc(C(F)(F)F)ccc1Cl | inactive: 7.35%
54 | CCc1ccc2n(-c3ccc(OC)cc3)c([S-])c(C(=O)Nc3cc(C)cc(C)c3)[n+]2c1 | inactive: 3.95%
55 | O=C(COC(=O)CNC(=O)c1cccc([N+](=O)[O-])c1)Nc1cccc(S(=O)(=O)N2CCCCC2)c1 | inactive: 12.3%
56 | O=C(Nc1ccccc1C(=O)N1CCOCC1)C1CC(=O)N(c2ccc(F)cc2)C1 (stereo unspecified) | inactive: 1.26%
57 | CNc1c(NS(=O)(=O)c2cc(OC)ccc2OC)c(=O)oc2ccccc12 | inactive: -22.6%
58 | N#CCc1ccc(NC(=O)c2ccc(S(=O)(=O)N3CCCC3)cc2)cc1 | inactive: -7.07%
59 | COc1ccc(C(C)(O)c2nc(-c3cccc(C(F)(F)F)c3)cs2)cc1 (stereo unspecified) | inactive: -43.8%
60 | CCC1(C)Cc2nc3[nH]c(=S)n(-c4ccc(C)cc4)c(=O)c3cc2CO1 (stereo unspecified) | inactive: 6.69%
61 | O=C(O)c1ccc(N2C(=O)/C(=C/c3ccc(-c4ccc([N+](=O)[O-])cc4)o3)C=C2c2ccccc2)cc1 | inactive: -1.01%
62 | Cc1ccc(OCC(=O)N2CC(C)CC(C)C2)c([N+](=O)[O-])n1 (stereo unspecified) | inactive: 15.6%
63 | CCOC(=O)c1c(/N=C/C2C(=O)CCCC2=O)sc2c1CCCC2 | inactive: 7.19%
64 | Oc1c(Br)cc(/C=N/Nc2nncc3ccccc23)cc1Br | inactive: 9.83%
65 | COc1ccccc1NC(=O)Nn1cnnc1 | inactive: -23.1%
66 | CCS(=O)(=O)N1CCC(C(=O)NCc2ccc(OC)cc2OC)CC1 | inactive: 4.26%

Row | Compound | growth rescue (activation)
67 | COc1cc(-c2cc3nc(NCc4ccco4)ccn3n2)cc(OC)c1OC | inactive: 18.6%
68 | COc1ccccc1OCc1nnc(SCC(=O)Nc2nnc(C3CC3)s2)n1C | inactive: -13%
69 | CCCCNC(=O)CSc1nc2ccccc2n1S(=O)(=O)c1ccc(Br)cc1 | inactive: 7%
70 | O=C(/C=C/c1ccc(O)cc1)c1ccccc1 | inactive: -2%
71 | Cc1nn(CCCC(=O)O)c(C)c1[N+](=O)[O-] | inactive: -5.58%
72 | O=C(O)c1ccc(C2Nc3ccccc3-c3nnc(SCc4ccc(Cl)cc4)nc3O2)cc1 (stereo unspecified) | inactive: 10.1%
73 | O=C(O)/C=C/C(=O)NCCCc1ccccc1 | inactive: 12.1%
74 | O=C(NC1CCCCC1)c1cc(-c2ccccc2O)on1 | inactive: 20.9%
75 | O=C(NNC(=O)C1CCCC1)c1ccccc1F | inactive: 4.34%
76 | Cc1ccc(CC(=O)Nc2nccs2)cc1C | inactive: 14%
77 | COc1ccc(/C=C(/NC(=O)c2cccc([N+](=O)[O-])c2)C(=O)O)cc1OC | inactive: -1.06%
78 | COc1cc2c(cc1OC)CN(c1nc(CN3CCOCC3)nc3sc4c(c13)CCC(C)C4)CC2 (stereo unspecified) | inactive: 4.46%
79 | CCCCn1c(=O)nc2n(-c3ccc(F)cc3)c3ccccc3cc-2c1=O | inactive: 5.97%
80 | CCN(c1cc(C)cc(C)c1)S(=O)(=O)c1nnc(NC(=O)C(C)C)s1 | inactive: 1.99%
81 | N/C(COc1ncn(-c2ccccc2)n1)=N\S(=O)(=O)c1ccc(Cl)cc1Cl | inactive: 0.983%
82 | COc1ccc(S(=O)(=O)N(C)CC(=O)NCc2ccc3c(c2)OCO3)cc1 | inactive: 12.7%
83 | CCOc1ccc(Cl)cc1/C=C1/C(=O)ON=C1C | inactive: -15.5%
84 | Cc1occc1-c1nnc(SCC(N)=O)o1 | inactive: -4.04%
85 | CN(Cc1nc(CCc2ccccc2)no1)Cc1cccs1 | inactive: 23.1%
86 | CCOc1ccc(/C=C2\CCC(C3CCCC3)C2=O)cc1 (stereo unspecified) | inactive: 13.4%
87 | COc1ccc(NC2CCCN(C(=O)CSc3ccncc3)C2)cc1 (stereo unspecified) | inactive: 11.7%
88 | O=C(CC1C(=O)NCCN1C/C=C/c1ccccc1)NCCCC1CCCC1 (stereo unspecified) | inactive: 4.86%

Row | Compound | growth rescue (activation)
89 | CCc1ccc(NC(=O)CS(=O)CC(=O)Nc2ccc(N3CCOCC3)cc2)cc1 (stereo unspecified) | inactive: 4.09%
90 | Cc1ccc(C)c(NC(=O)C2(C)CCCN2C(=O)C(C)C)c1 (stereo unspecified) | inactive: 3.87%
91 | CC1=C(C#N)C(c2ccc(O)cc2)C2=C(CCCC2=O)N1 (stereo unspecified) | inactive: -9.03%
92 | Cc1cccc(N2CC(C(=O)Nc3ccc(S(=O)(=O)N4CCCCC4)cc3)CC2=O)c1C (stereo unspecified) | inactive: 23%
93 | CN(C)c1ccc(C(CC(=O)c2ccccc2)C2CCCCC2=O)cc1 (stereo unspecified) | inactive: -0.268%
94 | O=C(CC(NCCN1CCOCC1)C(=O)O)Nc1cccc(Cl)c1 (stereo unspecified) | inactive: 5.73%
95 | O=c1c2ccccc2c(/C=N/c2nnc(Cc3ccccc3)s2)c(O)n1-c1ccc(Cl)cn1 | inactive: 1.89%
96 | CCN(c1ccccc1)S(=O)(=O)c1ccc(C(=O)Nc2c(C)n(C)n(-c3ccccc3)c2=O)cc1 | inactive: -19.8%
97 | C/C(=N\NC(=O)c1nnn(-c2nonc2N)c1CSc1ccccc1)c1ccc2c(c1)OCO2 | inactive: 4.55%
98 | O=C1/C(=C/c2cccnc2)CC/C1=C\c1cccnc1 | inactive: -8.6%
99 | C[C@H](NC(=O)c1ccco1)C(=O)Nc1ccc2c(c1)OCO2 | inactive: 3.75%
100 | CCc1nc2ccc(C(=O)Nc3cc(-c4ccccc4)ccc3OC)cn2c1N(C)Cc1ccc(OC)cc1 | inactive: -43.1%
101 | CCOc1ccc(NC(=O)CSc2ncn[nH]2)c([N+](=O)[O-])c1 | inactive: -5.03%
102 | CC(CN1CCCCC1)C(=O)NN (stereo unspecified) | inactive: 17.8%
103 | COc1ccc(CNC(=O)C(c2ccncc2)N(C(=O)Cc2cccs2)c2cccnc2)cc1 (stereo unspecified) | inactive: 16.5%
104 | O=C(O)C1CCCCC1C(=O)Nc1ccc(S(=O)(=O)N2CCCCCC2)cc1 (stereo unspecified) | inactive: -12%
105 | Cc1cccc(NC(=O)c2cccc3c2-c2ccccc2C3=O)n1 | inactive: 17%
106 | COc1ccc(-n2c(=S)[nH]c3cc(C(=O)NCCCN4CCOCC4)ccc3c2=O)cc1 | inactive: 4.6%

From PubChem BioAssay AID1347073 (National Center for Advancing Translational Sciences (NCATS), 2019)
